According to the supplement of paper PMC3334620:
Over roughly 33,000 sequences, “E-score (-0.5 to 0.5)” has its median near -0.01; the highest 2% begin near 0.26. This is one part of the list.

Molecular target: Ste12 (UniProt P13574)
Assay: PBM E-score (8-mer binding enrichment) (E-score (-0.5 to 0.5)); higher = stronger / more preferred TF binding; most listed sequences are background and not binding sites
Conditions: protein concentration: 200 nM; construct: GST-DNA-binding domain
Outline: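 Universal all-10-mer Agilent arrays, double-stranded by primer extension on fresh or once-stripped slides, were probed with about 100-200 nM GST-tagged yeast transcription factors made by PURExpress. Fluorescent anti-GST detected bound protein, and masliner normalised the scans. E-scores from the Universal PBM Analysis Suite were given to each ungapped eight-base word pooled with its reverse complement.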

Sequence | PBM E-score
AGGGACCG | -0.192
GGTCTAAC | -0.0601
CTAGCGCC | -0.22
ACCACACG | -0.0448
GCCTGGTA | 0.00276
CATGGAGG | -0.059
CTCCAAAA | 0.183
CAAGCACC | -0.106
CTTACCTA | 0.0594
GACTCGAC | -0.0892
TCGATTAA | 0.159
AGTGCGCC | -0.156
CGGCTATA | 0.089
AACCCCTT | -0.194
CTTTCAGC | -0.0939
GCCGAGAA | 0.0323
AGTTTCTA | 0.16
CCTTTTGA | 0.0927
CAGCGTGG | -0.186
ACGCATCC | -0.014
ATTTGGTC | -0.0115
ACATAACC | 0.114
GTAGAGAC | -0.134
AACCAACT | -0.0386
AAGTGTGC | -0.0675

Sequence | PBM E-score
CACTACCA | 0.0584
GCTGTTAC | 0.105
CCGTTTAC | -0.0196
CATGTACA | -0.0456
CTTCAGAC | -0.166
CTATGTTA | 0.162
GATTAGAA | 0.0413
ACTCAGCG | -0.0244
GGGCAAGA | 0.107
CTCGCATC | -0.0806
AGCATGAA | 0.0114
ATGACCTC | -0.245
AATGGTCT | -0.167
ACTATGCG | 0.0582
CACGGCTC | 0.0152
GCGTACAA | -0.177
GCGGCTTA | 0.125
GTCAAATA | 0.173
CTTATATA | 0.226
CGCACTTC | -0.0312
AAATTACA | 0.129
CCTCGTTA | 0.049
CTATTTGC | 0.00415
GAGTAGGA | -0.2
CAACTAGA | 0.0762

Sequence | PBM E-score
AAGATATC | 0.103
AAGATTGT | 0.0785
ATTACTCC | 0.0706
GTAGCCAC | -0.27
GATGATGA | -0.107
AAGATTTG | 0.0432
CAACGTCC | -0.101
CCGTGACG | -0.0381
AATTGGCG | 0.146
AGGGGAAA | -0.0862
AACTGCGC | 0.0711
AGCTAATA | -0.106
CATCGGAA | 0.0374
AATGCACA | 0.0328
AACCCTTG | -0.0917
ATCAGGCG | -0.0721
ATAACCGC | 0.00227
AAATTGAG | 0.0654
ATTAGCGG | -0.0105
CGTTTAGC | -0.0383
GAGTACAC | -0.231
CTAGGTTA | 0.0626
CATAAACA | 0.148
ACAGGTCT | -0.267
GTGGAAAC | 0.087

Sequence | PBM E-score
CTGTCAGC | -0.167
CGCAACCC | 0.00607
ATCGAGGG | 0.108
ACTACTGG | -0.154
GACTGGAC | -0.204
CTAGACTA | -0.0813
CTAGGGGC | -0.245
CTTAAACA | 0.226
GCCAGTAC | -0.065
CTTTAGTC | -0.0859
ATGCCGCG | 0.0154
GAGGTAGA | -0.142
CCTCATCG | -0.0958
CGAATGCC | 0.0282
CATCTACA | 0.0615
AAGCAAGT | 0.0123
ATCCAAGC | -0.309
ATAGACTA | 0.00373
CCCACTAC | -0.00139
GCATCAAA | 0.0627
AAGACTAC | 0.0284
GACTGGCC | -0.136
CCACGTGC | -0.276
ACCCACGC | 0.0738
CACCTTGA | 0.00979

Sequence | PBM E-score
TTCGAGAA | 0.0432
CCACGTGG | -0.105
AGACGCAC | -0.163
CCTCGCCA | -0.045
GGCGGCTA | -0.106
AGATCCTA | -0.0903
GTGGTCGA | -0.162
AACACGGG | 0.0924
GGGTCATA | -0.156
ACAAATCC | 0.134
CCGTAAGC | -0.142
AAGTGGTG | -0.038
CGCTTTCC | 0.0604
CAGCCAAA | 0.118
ACTCTTAA | -0.0113
ACTCATGC | -0.11
ACACTCAC | 0.0472
TAACGGCA | -0.0399
AACCTGCG | 0.0448
CCGAGTCG | -0.0887
ACGCGTGA | 0.0295
ACTGTGGC | -0.0114
AACGTACA | -0.0941
GGTAACTA | 0.133
CGGCCGGC | 0.118

Sequence | PBM E-score
CAGGAAAG | -0.0683
CCTAAAAG | -0.194
CGTGCGTC | 0.00737
CATTCACC | 0.155
CAAGGCTG | -0.0825
GGCAGTCA | -0.148
AACGCCCA | -0.00128
CAGAAACC | 0.142
CGTTCGGA | 0.0375
CACAGGGA | -0.0582
CGCCTTAG | -0.0285
CTCCACTC | -0.174
AGCTGTCA | -0.0399
AACGGCTC | -0.0968
AAACTACT | 0.0741
GACCGGTA | -0.183
CGCGTGAG | -0.0362
AGCGAGCT | 0.181
AGGTTCAC | 0.0171
CAATCTAA | 0.0497
AGTGTATA | -0.149
GAGTTCGC | -0.0738
ACTCCAGG | -0.098
GCTAGTAA | 0.104
ATATCGCG | 0.0898

Sequence | PBM E-score
AACGGAGA | -0.0518
CACAGGCA | -0.108
CCTAGCCC | -0.0488
AAAGATGT | -0.0272
GAGGAGCC | -0.15
CGTTGATC | -0.00093
CACAGATA | -0.0734
ACGCATTC | 0.0428
AAACACCG | 0.318
ACGATAGC | -0.0268
AGCGACGC | -0.0467
ACTTTAGA | 0.0868
ACTTCACG | -0.121
AGGGACAC | 0.0218
GGGGCTTA | -0.184
CAGTCTGC | -0.0291
GGACCATA | -0.157
ATGACCAC | -0.0736
GATTCAAC | 0.0183
GTGCGGAA | 0.0628
AATTCCGC | 0.0879
AAAAGCAT | 0.178
ATATAGCG | -0.029
CTCCGTCC | -0.216
AGCACCAT | -0.0597

Sequence | PBM E-score
CAACGTGC | -0.0286
CGTGCAAG | -0.161
GAATCCAC | -0.0305
CATATCCG | 0.085
AGCTCTAT | -0.175
AGGTAAAC | 0.22
CCGTGGCA | -0.0397
CGCTTAGC | -0.148
ACGAATAT | 0.0367
GCGGCTCC | -0.21
AGCACCCG | -0.171
GGTTATTA | 0.152
ATCACCCA | 0.119
GTACGACA | 0.0486
GGAATCCC | 0.0198
ACCTATTG | -0.168
GACAGCGA | -0.0446
GGATCACC | -0.0886
CTTAATTC | 0.166
CCATCGGC | -0.126
CTCTTCAC | -0.0677
AATAATCA | 0.109
GCTTTTGA | -0.106
CATCATGG | 0.0244
CAATTAGA | 0.102

Sequence | PBM E-score
CACGTGAC | -0.0831
GCACGAGA | -0.0756
GCCGGTTA | -0.143
AGCTCCAG | -0.073
CCGCGATA | -0.0834
CATTTTAA | 0.27
ACCTATAT | 0.122
AGAGCACA | -0.105
TACGACCA | -0.0278
CCGGTAGA | 0.0403
AATCGCTC | -0.115
CAACCAGG | -0.132
AAGTTATG | 0.189
ATCTACGA | -0.157
ACTGGGAA | 0.0846
GAAGTATC | 0.0647
ACGTGAGT | 0.00095
ACCACTGC | -0.136
AGGACGCA | 0.0224
CCCCGCGG | 0.0761
GGTCGCTA | -0.0448
AAGCTATG | -0.175
TCGCTCCA | -0.0151
GCACAACA | -0.0193
ACTCGGAT | 0.104

Sequence | PBM E-score
GGTTTATA | 0.199
GATCGTCA | -0.112
AAGAGCAG | -0.133
CAAGTCGA | -0.171
AGCCCGAA | -0.0955
CGCACGAA | 0.113
GACTTCAA | 0.0552
ACTTGGTG | -0.0265
ACAGCGTG | 0.061
CCGGTGTC | -0.16
AGAGAACT | -0.0534
AAGCGTAG | -0.0163
AATGAGAT | 0.142
ATAACCAG | -0.0264
ATCGCCAG | 0.021
CCAAAGAC | -0.171
ATTCTCTA | -0.035
CCAGATGC | -0.18
GACGCCCC | 0.0563
ACACAAGT | 0.0836
TAAGTCCA | -0.0798
CGTGTTTC | 0.36
TCGCCGAA | 0.0616
TCCTCCGA | -0.0761
ATATCAGA | 0.0787

Sequence | PBM E-score
GTAGATAA | 0.183
ACGGAGGG | -0.0302
CCTGTACA | -0.0588
AGTTACCA | -0.0617
AGCATGGC | -0.0799
CATGTGCA | -0.191
CCAATTCA | 0.12
CTTAAGTA | 0.0362
GGTAAATA | 0.127
CCACACAG | 0.0795
ATACATAA | 0.21
GCCATATA | -0.0143
CGCAAGAC | -0.188
GCGGGATA | 0.133
AGGAGACG | -0.372
CAGCGACG | -0.0974
AGCGATCC | -0.148
GCTCTGGA | 0.00508
AGCTCCCT | -0.285
AACGATGT | -0.0304
CAGGCATG | 0.0594
GTTACGTA | -0.187
CATAGAAA | 0.21
ATGCAGGA | -0.0982
GCTAGACC | -0.17

Sequence | PBM E-score
AGACAGTC | -0.102
AACTGAAG | 0.158
CCTCGGAG | 0.0196
AGCCAGAA | 0.0307
TCAAGGCA | -0.169
GCAATGGC | -0.00313
AACGGATT | 0.146
AGGTCCAA | -0.213
CAGGATAA | 0.154
CCAGGAAC | -0.191
ATGCGGGG | -0.0837
CTCATTTA | 0.103
CAATATTC | 0.00821
GCTTGAAC | 0.0421
CATCAGAG | -0.0298
CCGGCGGA | 0.144
AGCAATCC | -0.166
ACCGATAG | -0.063
CCGGACCG | 0.00062
TACAAAGA | 0.067
CAAGTGCC | -0.104
ACGTTGTA | -0.0121
GGGACACC | -0.0313
TACTGTGA | 0.0419
CTCGGGAC | -0.0582

Sequence | PBM E-score
ACTGGGCG | -0.0655
ACGGTGCA | -0.0738
AAATGTTA | 0.247
CAAATTAG | 0.208
GGTAATGA | 0.0985
GGGCTGCA | -0.0952
GGCTGTAC | -0.248
ATCGACCC | 0.162
AAGGATGG | -0.114
CCTGGCCA | -0.16
ATCGTCGA | -0.119
GCTAGAAC | -0.1
AGGTCAAC | -0.202
CCTGGAAC | 0.139
GGGTGCAC | -0.127
CCAGATCA | 0.139
GTCTCTCA | -0.184
ATAATACC | 0.161
CGTCCGCC | -0.0636
GATGCGGA | -0.044
AACGCTAT | -0.158
ACGATCCT | -0.0389
CAGGGCCA | -0.365
CTGATTTC | 0.0354
TAATAAAA | 0.225

Sequence | PBM E-score
GCCAAAAC | 0.0568
CACACCCG | 0.0642
CTCAGCCA | -0.0414
CGAATGCG | 0.00677
TAGTCGCA | 0.0917
ACTGTCCC | 0.0544
AAGAGGGC | -0.189
ACAGGACC | -0.183
CCTCCCGC | 0.0602
GAAGAACC | 0.018
AATGAATT | 0.133
GCGAGACC | -0.0986
ACTTGTTC | -0.162
GCTGACCA | 0.131
CGAGAACG | -0.0512
AGGGATCC | -0.162
ATGTCGCG | 0.0908
AGCACGAG | 0.0264
GGTATCAA | -0.0259
